# Out of some 360,000 compounds screened, about 6,000 (1.7%) were called active. This list was built around the results that the source calls inconclusive (neither active nor inactive); the mix of calls is not that of the screen. The call rests on the fitted dose curve; in most records, active means well fitted cell-killing curve with a large enough effect; inconclusive means small, poorly fitted or top-dose-only effect, or effect the other way; inactive means flat fitted curve, though single readings scatter. No potency is given beside an inconclusive call; the fits are too rough.
# Assay: qHTS for induction of synthetic lethality in tumor cells producing 2HG: qHTS for the HT-1080-NT fibrosarcoma cell line;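 further: NT is the 2HG producing partner of a matched IDH1 knockdown line; nearly all actives have a fitted effect of over 55% in size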;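 on activity, negative = less viability: 0% = DMSO-treated cells and -100% = media-only wells without cells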
# Conditions: HT-1080-NT fibrosarcoma viability, CellTiter-Glo ATP luminescence, 48 h; activity, negative = less viability: at 46.1 µM (top of the series) unless noted
# Method in brief: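 Compounds were tested in concentration-response format on HT-1080-NT cells for 48 hours at 37 degrees C. Cell viability came from CellTiter-Glo luminescence; curves were classified by r2, response magnitude and activity.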
# Potency means the concentration at half of the fitted maximal effect; tags describe the fitted curve by direction and shape.
Compound,"activity, negative = less viability",Potency
O=S(=O)(c1ccc(Br)cc1)c1nc(-c2ccco2)oc1NCCCn1ccnc1,inactive: -16.3%,
O=C(NN(c1ccccc1)c1ccccc1)c1ccc([N+](=O)[O-])o1,,"inconclusive [cytotoxic, single point]"
COc1ccc(N2CCN(c3nc(NCCc4ccc(OC)c(OC)c4)nc(OC)n3)CC2)cc1,,"inconclusive [cytotoxic, single point]"
Clc1ccc2nc(N3CCCCC3)[nH]c2c1,inactive: -2.01%,
COc1ccc(S(=O)(=O)NCc2ccccn2)cc1NC(=O)c1ccccc1F,,active: 4.61 µM
CSc1cccc(NC(=O)N2CCCC(CNS(=O)(=O)Cc3ccccc3)C2)c1 (stereo not drawn),inactive: -2.16%,
Cc1cc(NC(=O)CSc2nc(-c3ccco3)cc(C(F)(F)F)n2)no1,,active: 0.58 µM
CC(C)Cn1c(N)c(C(=O)CSc2ncn[nH]2)c(=O)n(C)c1=O,inactive: 5.26%,
Cc1cccc(Cc2ccc(Cl)nn2)c1,inactive: -2.09%,
Cn1c(C2=C(O)CN(c3ccc4c(c3)OCCO4)C2=N)nc2ccccc21,,"inconclusive [rising, partial curve, poor fit]"
COc1ccccc1Cc1c(-c2cccc(Br)c2)nc2c(C)cc(Br)cn12,,"inconclusive [cytotoxic, single point]"
CCOc1ccccc1C(=O)Nc1ccc2nc(N3CCN(c4ncccn4)CC3)cc(C)c2c1,,"inconclusive [cytotoxic, single point]"
Cc1nnc(SC(C)C(=O)Nc2ccc(S(=O)(=O)NC3CCCCC3)cc2)s1 (stereo not drawn),,"inconclusive [cytotoxic, single point]"
COc1ccc(CN2CCC(CO)(CCOc3ccccc3)CC2)c(OC)c1C,,"inconclusive [cytotoxic, partial curve]"
COc1cc(C=CC(=O)c2cc(OC)c(OC)c(OC)c2)cc(OC)c1OC,,"inconclusive [cytotoxic, single point]"
CC(=O)c1cccc(NC(=O)COc2ccc(S(=O)(=O)N3CCCCC3)cc2)c1,inactive: 2.74%,
COc1ccc(CCNC(=O)/C=C/c2ccc3ccccc3n2)cc1OC,,"inconclusive [cytotoxic, single point]"
O=C(O)c1cc(O)c2c(c1)[C@@H]([C@H]1c3cc(C(=O)O)cc(O)c3C(=O)c3c(O[C@@H]4O[C@H](CO)[C@@H](O)[C@H](O)[C@H]4O)cccc31)c1cccc(O[C@@H]3O[C@H](CO)[C@@H](O)[C@H](O)[C@H]3O)c1C2=O,inactive: -23%,
CC(Oc1ccc(F)cc1)C(=O)Nc1ccc2ccccc2c1 (stereo not drawn),inconclusive: -4.15% [cytotoxic],
COc1ccc(/C=C/c2nc(S(=O)(=O)c3ccccc3)c(NCCCN(C)C)o2)cc1OC,inactive: -8.74%,
Cc1ccc2nc(NC(=O)CSc3nc(=O)n(CCCN(C)C)c4c3CCC4)sc2c1,,"inconclusive [cytotoxic, single point]"
CCOC(=O)[C@]12CCC=C1N(Cc1ccc(Cl)cc1Cl)C(=O)[C@H](CC(=O)N1CCCC1)C2,inactive: 1.39%,

Compound,"activity, negative = less viability",Potency
COc1ccc(C(=O)N2CCN(c3cccc(Cl)c3)CC2)c(OC)c1,,active: 14.6 µM
COc1cc(C(=O)Nc2ccc3c(c2)CCN3C(C)=O)cc(OC)c1OC,,"inconclusive [cytotoxic, full curve]"
Clc1ccc(C[n+]2cc(-c3ccc(Cl)cc3)n3c2CCC3)cc1,,"inconclusive [cytotoxic, full curve, poor fit]"
N=C1C=CC(=C(c2ccc(N)cc2)c2ccc(N)cc2)C=C1,,active: 23.1 µM
O=C(O)c1cc([N+](=O)[O-])ccc1NCc1ccccn1,,"inconclusive [cytotoxic, single point]"
O=C(O)CC/C(=C/c1cccc(NC(=O)c2ccccc2Cl)c1)c1nc2ccccc2s1,,"inconclusive [cytotoxic, partial curve]"
C[C@H](CO)N1C[C@H](C)[C@@H](CN(C)Cc2ccccc2)OCCCC[C@H](C)Oc2ccc(N(C)C)cc2C1=O,inactive: 1.05%,
O=C(Nc1cnn(Cc2ccc(F)cc2)c1)C(c1ccccc1)c1ccccc1,,"inconclusive [cytotoxic, single point]"
Cc1ccc(Oc2ccc(OCC(=O)NC3CCS(=O)(=O)C3)cc2)cc1 (stereo not drawn),,"inconclusive [cytotoxic, single point]"
Cn1ccc2c(N3CCCCCCC3)cc3c(c21)C1CCC3O1 (stereo not drawn),,"inconclusive [cytotoxic, single point]"
N#CCC(=O)N/N=C/c1coc2ccccc2c1=O,,"inconclusive [cytotoxic, single point]"
CC(C)c1cc(NC(=O)CCl)on1,,active: 18.4 µM
COc1ccccc1C(=O)NCC(=O)N/N=C/c1ccncc1,inactive: 14.9%,
C[C@@H]1CN([C@@H](C)CO)C(=O)c2cccc(NC(=O)C3CCCCC3)c2O[C@@H]1CN(C)Cc1ccc(Cl)c(Cl)c1,,"inconclusive [cytotoxic, single point]"
CN(C)c1nc(-c2cn(CCC#N)c3ccccc23)cs1,,"inconclusive [cytotoxic, single point]"
COc1cc(/C=N/Nc2cccc(C)c2)cc(Br)c1O,inconclusive: -31.5% [cytotoxic],
COc1ccc(/C=C/C(=O)OCC(=O)Nc2c(C)cccc2C)cc1,inactive: -3.69%,
C=C(C)COc1ccc(-c2n[nH]c(C)c2-c2ccccc2OC)c(O)c1,,"inconclusive [cytotoxic, single point]"
Cc1ccccc1OCCC(=O)Nc1cc(S(=O)(=O)N2CCCCC2)ccc1N1CCN(C)CC1,,"inconclusive [cytotoxic, single point]"
CCCCOCCCNC(=O)C[C@@H]1C[C@@]2(C(=O)OCC)CCC=C2N(Cc2cccc3ccccc23)C1=O,,"inconclusive [cytotoxic, single point]"
COc1ccc(-c2oc3ccc(-c4ccc(OC)nc4)cc3c2C#CC2(O)CCCCC2)cc1,,"inconclusive [cytotoxic, single point]"

# Reference: PubChem BioAssay AID686970 (National Center for Advancing Translational Sciences (NCATS), 2013)
